Among all 340,000 compounds or so, about 6,900 (2%) were called active. Rule as the data show it: active = inhibition above about 30%; inactive = below that, where a call was filed. This is a selection; strong and weak results do not stand in their true shares. Entries without a call were filed so in the source.
target: D(2) dopamine receptor (Homo sapiens) (UniProt P14416); assay: HTS Assay for Allosteric Antagonists of the Human D2 Dopamine Receptor: Primary Screen for Antagonists; details: HEK293 TREx D2 cells, calcium flux, dopamine EC80; at 10 µM; stronger effect = higher value; also: 0% is about no effect
Chain of UniProt P14416 (P14416 whole entry, looked up): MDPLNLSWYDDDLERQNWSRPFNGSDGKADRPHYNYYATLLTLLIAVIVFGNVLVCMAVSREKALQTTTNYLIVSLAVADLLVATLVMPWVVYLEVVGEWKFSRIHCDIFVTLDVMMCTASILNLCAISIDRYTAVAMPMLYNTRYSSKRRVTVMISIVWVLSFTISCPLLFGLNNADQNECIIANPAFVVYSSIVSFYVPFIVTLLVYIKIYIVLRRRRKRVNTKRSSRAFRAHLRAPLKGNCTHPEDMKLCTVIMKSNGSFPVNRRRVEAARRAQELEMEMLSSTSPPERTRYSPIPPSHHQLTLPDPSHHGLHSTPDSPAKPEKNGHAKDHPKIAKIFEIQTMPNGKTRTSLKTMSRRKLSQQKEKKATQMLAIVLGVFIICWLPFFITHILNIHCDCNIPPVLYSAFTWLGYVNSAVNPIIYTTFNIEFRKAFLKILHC
In short: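 Antagonism is scored as inhibition of an EC80 dopamine-evoked calcium signal in a force-coupled, tetracycline-inducible HEK293 T-REx D2 line, with compound present 180 s before agonist.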

Compound	inhibition
Cc1cccc(N2CCN(S(=O)(=O)c3cc(C(=O)Nc4ccc(Oc5ccccc5)cc4)ccc3F)CC2C)c1 (stereo not given)	6.36%
COC(=O)c1ccc(NC(=O)c2c(NCc3cccc(F)c3)sc3c2CCCC3)cc1	-8.18%
Cc1cc2c(cc1S(=O)(=O)N(CCN(C)C)Cc1ccccc1)OCC(=O)N2	9.04%
C=CCn1c(SCC(=O)Nc2ccc(O)cc2)nc2sc(CC)cc2c1=O	active: 31.1%
CCN(CC)c1ccc2cc(-c3nnc(Nc4ccc(C)cc4)s3)c(=O)oc2c1	-14.5%
COc1ccc2c(C)c(CCC(=O)NCCc3ccccc3)c(=O)oc2c1	-11.1%
COC(=O)C1=C(CS(=O)(=O)c2ccc(C)cc2C)NC(=O)NC1c1ccc(C)cc1 (stereo not given)	-0.218%
Cc1cc(C)c(S(=O)(=O)NCc2ccc3c(c2)CCN3C(=O)c2ccccc2)c(C)c1	9.49%
Oc1cc2c(cc1CN1CCc3ccccc3C1)OCO2	active: 32.6%
Cc1nn(-c2ccccc2)c2sc(C(=O)Nc3ccc(Cl)cc3Cl)cc12	8.09%
CCCCN(C)CCNC(=O)c1nn(-c2ccc(OC)c(Cl)c2)c(=O)c2c1c1ccccc1n2C	-2.2%
Cc1ccc2c(=O)c(C(=O)c3ccc(F)cc3)cn(CC(=O)NCc3ccco3)c2n1	active: 33.1%
Cc1cc(OCCN2CCCCCC2)ccc1[N+](=O)[O-]	active: 33.9%
COc1ccc(C(=O)Nc2nnc(SCc3cc(=O)c4cc(C)ccc4[nH]3)s2)cc1OC	-9.87%
Cc1cccn2c(=O)c(C(=O)N3CCN(c4ccccc4F)CC3)cnc12	1.36%
Cc1ccc(-n2c(=O)c3ccc(C(=O)NCc4ccco4)cc3n(Cc3ccccc3C#N)c2=O)cc1	-14.4%
Cc1ccc(NC(=O)Cn2c(=O)n(Cc3ccco3)c(=O)c3ccccc32)c(C)c1	2.09%
COc1ccc(NC(=O)c2ccc3c(c2)sc2nc(-c4ccc(OC)cc4)cn23)cc1	-2.23%
CCN(CC)c1cc2c(cc1F)c(=O)c(S(=O)(=O)c1cccc(C)c1)cn2C	-22.7%
CCOc1ccc(C2CC(=O)N(c3cccc(F)c3)C3=C2C(=O)OC3)cc1 (stereo not given)	8.4%
COc1ccc(CCNC(=O)c2ccc(Cn3c(=O)c4ccccc4n(Cc4cccc(Cl)c4)c3=O)cc2)cc1OC	8.66%
CCOc1ccccc1NC(=O)C(CC)Sc1nc2ccncc2[nH]1 (stereo not given)	-27.9%
COc1ccc(NCc2cc3cc4c(cc3n(CC(=O)Nc3cc(C)ccc3C)c2=O)OCCO4)cc1	-9.46%
CC(C)c1ccc(NS(=O)(=O)c2ccc3nc(-c4ccccc4)[nH]c3c2)cc1	14.8%

Compound	inhibition
Cc1nn2c(=O)cc(COC(=O)c3ccccc3NC(=O)C(C)Oc3ccccc3)nc2s1 (stereo not given)	-3.11%
CCOc1ccc(CN2CCc3nc(Nc4ccc5c(c4)OCCO5)ncc3C2)cc1	-4.88%
O=C(c1ccccc1Cl)N1CCCCC1CCN1CCCCC1 (stereo not given)	4.29%
COc1ccc(NC(=O)C(C)N(c2ccccc2)S(C)(=O)=O)cc1 (stereo not given)	-3.08%
COc1ccc(C)cc1NC(=O)Cn1c(=O)n(Cc2nc(C)no2)c(=O)c2ccccc21	-3.22%
Cc1cccc(NC(=O)CSc2nc(-c3ccco3)cc(C(F)(F)F)n2)c1C	11.1%
Cc1cccc(N2CCN(S(=O)(=O)c3csc(C(N)=O)c3)CC2)c1C	21.6%
Cc1ccc(N(Cc2cccs2)C(=O)c2ccccc2Cl)cc1	4.26%
Cc1ccc(-c2nc3ncccc3o2)cc1NC(=O)c1ccc(-c2ccc(Cl)cc2)o1	-16%
CCOC(=O)c1ccc(NC(=O)c2cc3sccc3n2Cc2ccc(Cl)cc2)cc1	1.19%
S=C(NCC1CCCO1)N1CCN(c2nc(-c3ccccc3)cs2)CC1 (stereo not given)	active: 66.6%
O=C(NCc1ccccc1)C(=O)NCC(c1cccs1)S(=O)(=O)c1ccccc1 (stereo not given)	22.6%
Cc1ccnc(NC(NC(=O)C(C)C)(C(F)(F)F)C(F)(F)F)c1	active: 32.5%
CC1(C)CC(=O)c2cc(C(=O)Nc3ccccc3Cl)c(=O)n(-c3ccc(Cl)cc3)c2C1	19.2%
COc1ccc2cc3cc(C(=O)NCc4ccccc4OC)oc3nc2c1	16.5%
COc1ccc(C2=C(C)C(N3CCC(C(=O)Nc4ccc(F)cc4C)CC3)=NS2(=O)=O)cc1	4.04%
Brc1cccc(-c2cnn3c(-c4ccccc4)cc(-c4ccccc4)nc23)c1	-11.4%
O=C(Nc1ccc(Cl)c(C(F)(F)F)c1)C(Cc1ccccc1)NS(=O)(=O)c1ccc(Br)s1 (stereo not given)	0.155%
CCOc1ccc(NC(=O)C(=O)NCc2ccco2)cc1	-5.36%
O=C(NCCc1ccc(F)cc1)C(=O)NCC(c1ccco1)S(=O)(=O)c1cccs1 (stereo not given)	6.82%
CCc1ccccc1NC(=O)c1ccc2nc(C(C)C)oc2c1	1.42%
Cc1ccc(N(CC(=O)Nc2ccc(Br)cc2)S(=O)(=O)c2cccs2)cc1	8.53%
COc1ccc(S(=O)(=O)n2nc(C)c(S(=O)(=O)N3CCC(C)CC3)c2C)cc1OC	7.37%
O=C(Nc1nnc2n1CCS2)c1ccccc1C(F)(F)F	-12.6%

Compound	inhibition
COc1cc(OC)cc(C(=O)N2CC(=O)Nc3ccc(Cl)cc3C2c2ccccc2)c1 (stereo not given)	1.67%
CC(C)CCNC(=O)CCC(=O)NNc1nc2ccccc2c2nc(-c3ccccc3)nn12	18.4%
CC(=O)c1ccc(N2CCN(C(=O)CCCCn3c(=O)[nH]c4ccsc4c3=O)CC2)cc1	8.86%
CCOc1ccc(CNS(=O)(=O)c2cc3c(cc2C)NC(=O)CO3)cc1	-13.5%
Cc1cccc(NC(=O)CSc2nc3ccccc3nc2N2CCOCC2)c1C	14.6%
CCSc1nnc(NC(=O)c2cc(=O)c3cc(C)c(C)cc3o2)s1	4.99%
O=C(Nc1cccc(C(F)(F)F)c1)c1cc(-c2ccc3c(c2)OCCO3)on1	22.2%
Cc1ccc(C)c(SCC(=O)Nc2cc(S(=O)(=O)N3CCOCC3)ccc2C)c1	active: 53.1%
CCOC(=O)c1c(-c2ccc(OC)cc2)oc2ccc(OCc3ccc(Br)cc3)cc12	21.2%
CCc1cnc2c(c1SCC(=O)c1ccc(Cl)cc1)c(=O)n(C)c(=O)n2C	-20.1%
COc1ccc(Cn2c(=O)c3cccnc3n(CC(=O)Nc3c(C)cc(C)cc3C)c2=O)cc1	0.695%
CCOC(=O)c1cccc(NS(=O)(=O)c2cc(-c3cnc(C4CC4)o3)ccc2C)c1	8.66%
Cc1ccc2oc(-c3cccc(NC(=O)Cc4ccc(Cl)cc4)c3)nc2c1	-15.1%
Cc1ccc(Sc2c(C)nn(C(=O)c3ccc(Cl)cc3)c2C)cc1	24.2%
Cc1c(C(=O)OC(C)C)sc(NC(=O)C2c3ccccc3Oc3ccccc32)c1C(=O)OC(C)C	3.17%
CCOC(=O)c1c(S(=O)(=O)N2CCCC(C(=O)Nc3ccc(C)cn3)C2)c(C)n(C)c1C (stereo not given)	2.63%
Cc1ccc(-n2c3nc(=O)[nH]c(=O)c-3cc3c(C)nn(-c4ccccc4)c32)cc1C	19%
CC1(C)CC(=O)c2cc(C#N)c(=O)n(-c3ccc(Cl)cc3)c2C1	7.68%
COc1ccc(NC(=O)Cn2cc(C(=O)c3ccccc3)c(=O)c3cc(OC)ccc32)c(OC)c1	6.66%
O=C(O)CCC(=O)Nc1sc2c(c1C(=O)Nc1ccccc1)CCCCC2	15.6%
Cc1ccsc1CN(C(=O)c1ccc(OCC(C)C)cc1)C1CCS(=O)(=O)C1 (stereo not given)	3.74%
CCc1ccc(NC(=O)c2ccc(F)c(S(=O)(=O)N3CCN(c4ccc(OC)cc4)CC3)c2)cc1	5.68%
CC(CNC(=O)CCc1cn(Cc2ccccc2Cl)c2ccccc12)c1ccccc1 (stereo not given)	13%
CCOc1ccccc1NC(=O)C1CCN(S(=O)(=O)c2cccs2)CC1	-1.55%

Compound	inhibition
COc1cccc(Oc2nc(C)nc3c2oc2ccccc23)c1	-10.3%
Cc1cc(C)cc(NC(=O)Nc2ccc3nc(N4CCN(C)CC4)cc(C)c3c2)c1	-8.67%
CCOc1ccc(NC(=O)Cn2ccn3nc(-c4ccc(OC)c(OC)c4)cc3c2=O)cc1	9.92%
CCCS(=O)(=O)c1nc(S(=O)(=O)c2ccc(C)cc2)c(NCc2ccccc2Cl)s1	-9.3%
Cc1nc(N2CCCC2)c2c(C(=O)Nc3cccc(Cl)c3)c(C)oc2n1	14%
O=C1CN2C(=N1)N(Cc1ccccc1)c1ccccc12	active: 70.7%
COC(=O)c1ccc(NC(=S)NCCC2=CCCCC2)cc1	active: 54.8%
COc1ccccc1CNC(=O)CCCN1C(=O)CSc2c1c(C)nn2-c1ccccc1	1.52%
COc1ccc(-n2nc(C(=O)N3CCN(c4ccccc4OC)CC3)c3c4ccccc4n(C)c3c2=O)cc1Cl	2.75%
CC(=O)N1CCOc2cc(S(=O)(=O)NCc3ccc(F)cc3)c(C)cc21	-15.2%
O=C(NC1CCCc2ccccc21)c1ccc2c(c1)sc1nc(-c3ccccc3)cn12 (stereo not given)	6.51%
O=C(Cn1c(=O)n(Cc2ccccc2)c(=O)c2sc3ccccc3c21)Nc1ccccc1F	-14.2%
O=C(Nc1ccc2c(c1)CCCN2C(=O)c1cccs1)c1ccccc1	-6.31%
CC(C)C1N=C2c3ccccc3N=C(SCC(=O)NCc3ccc(Cl)cc3)N2C1=O (stereo not given)	17.8%
O=C(COc1ccc(F)cc1)NCC(c1ccc(Cl)cc1)N1CCCCC1 (stereo not given)	0.804%
Cc1ccc(CCNC(=O)CCCn2c(=O)c3ccccc3n(Cc3ccccc3C)c2=O)cc1	-6.92%
Cn1c(=O)c2ccccc2n(CC(=O)NCCC2=CCCCC2)c1=O	active: 40.9%
COc1ccc(CCNC(=O)Cn2c(=O)n(-c3ccccc3)c(=O)c3c(C)c(C)sc32)cc1OC	-2.34%
CCN(CC(=O)Nc1c(F)cccc1F)C(=O)c1ccc(N2CCCC2)c([N+](=O)[O-])c1	active: 31.1%
CCCCOc1cccc(C(=O)N(Cc2ccc(N(C)C)cc2)C2CCS(=O)(=O)C2)c1 (stereo not given)	-9.79%
O=C(Cn1cnc(S(=O)(=O)N2CCCC2)c1)Nc1cccc(Br)c1	6.5%
Cc1cc(-c2nc3ncccc3o2)ccc1NC(=O)c1ccccc1Br	8.78%
CCc1ccc2ncc(C(=O)c3ccc(C)c(C)c3)c(N3CCC(C(N)=O)CC3)c2c1	17.5%

Source: PubChem BioAssay AID485344 (National Center for Advancing Translational Sciences (NCATS), 2010)
